Measured values taken from patent US7138231B2 (priority 2000, dated 2006).
Like-named read-outs stand apart in the source and are kept apart here.

Tests used:
[1] = system: HIV-1 patient viruses with protease V82 mutations; test: Phenotypic susceptibility profiles of 270 patient virus samples with a mutation at position 82 (not 30 or 50); assay type: cell-based; conditions: for wt % > 2.5 / wt % > 10 / Percent of viruses with indicated primary mutation(s) with reduced susceptibility (fold change in IC50 > 2.5) / Percent of viruses with indicated primary mutation(s) with reduced susceptibility (fold change in IC50 > 10): V82 mutations; for mt % > 2.5 / mt % > 10: listed as 82: all samples with V82 mutations
[2] = system: HIV-1 patient viruses with protease V82A/F/S/T; assay type: cell-based; conditions: for % with SQV FC > 2.5 / % with IDV FC > 2.5: V82A/F/S/T
[3] = system: HIV-1 patient viruses with protease V82A/F/S/T and L90M
[4] = in vivo, cited from earlier work
[5] = number of secondary mutations 1
[6] = number of secondary mutations 2
[7] = number of secondary mutations 3
[8] = number of secondary mutations 4
[9] = number of secondary mutations 5
[10] = number of secondary mutations 6
[11] = number of secondary mutations 7

Structure (SMILES): CC(C)(C)NC(=O)[C@@H]1C[C@@H]2CCCC[C@@H]2CN1C[C@@H](O)[C@H](Cc1ccccc1)NC(=O)[C@H](CC(N)=O)NC(=O)c1ccc2ccccc2n1 [saquinavir]
- wt % > 2.5 ([1]; Saquinavir FC>2.5, position 10 wild type): 23.9%
- wt % > 2.5 ([1]; Saquinavir FC>2.5, position 20 wild type): 53.1%
- wt % > 2.5 ([1]; Saquinavir FC>2.5, position 23 wild type): 60.5%
- wt % > 2.5 ([1]; Saquinavir FC>2.5, position 32 wild type): 64.1%
- wt % > 2.5 ([1]; Saquinavir FC>2.5, position 33 wild type): 59.2%
- wt % > 2.5 ([1]; Saquinavir FC>2.5, position 35 wild type): 55.6%
- wt % > 2.5 ([1]; Saquinavir FC>2.5, position 36 wild type): 53.5%
- wt % > 2.5 ([1]; Saquinavir FC>2.5, position 39 wild type): 62.6%
- wt % > 2.5 ([1]; Saquinavir FC>2.5, position 41 wild type): 56.3%
- wt % > 2.5 ([1]; Saquinavir FC>2.5, position 43 wild type): 59.1%
- wt % > 2.5 ([1]; Saquinavir FC>2.5, position 48 wild type): 56.4%
- wt % > 2.5 ([1]; Saquinavir FC>2.5, position 53 wild type): 58.1%
- wt % > 2.5 ([1]; Saquinavir FC>2.5, position 54 wild type): 32.9%
- wt % > 2.5 ([1]; Saquinavir FC>2.5, position 71 wild type): 34.9%
- wt % > 2.5 ([1]; Saquinavir FC>2.5, position 73 wild type): 59.1%
- wt % > 2.5 ([1]; Saquinavir FC>2.5, position 74 wild type): 59.4%
- wt % > 2.5 ([1]; Saquinavir FC>2.5, position 84 wild type): 55.8%
- wt % > 2.5 ([1]; Saquinavir FC>2.5, position 90 wild type): 41.0%
- mt % > 2.5 ([1]; Saquinavir FC>2.5): 61.7%
- wt % > 10 ([1]; Saquinavir FC>10, position 10 wild type): 13.0%
- wt % > 10 ([1]; Saquinavir FC>10, position 20 wild type): 21.4%
- wt % > 10 ([1]; Saquinavir FC>10, position 23 wild type): 29.1%
- wt % > 10 ([1]; Saquinavir FC>10, position 32 wild type): 33.1%
- wt % > 10 ([1]; Saquinavir FC>10, position 33 wild type): 29.4%
- wt % > 10 ([1]; Saquinavir FC>10, position 35 wild type): 24.7%
- wt % > 10 ([1]; Saquinavir FC>10, position 36 wild type): 21.8%
- wt % > 10 ([1]; Saquinavir FC>10, position 41 wild type): 26.8%
- wt % > 10 ([1]; Saquinavir FC>10, position 46 wild type): 38.1%
- wt % > 10 ([1]; Saquinavir FC>10, position 48 wild type): 23.5%
- wt % > 10 ([1]; Saquinavir FC>10, position 53 wild type): 25.8%
- wt % > 10 ([1]; Saquinavir FC>10, position 54 wild type): 13.4%
- wt % > 10 ([1]; Saquinavir FC>10, position 60 wild type): 28.9%
- wt % > 10 ([1]; Saquinavir FC>10, position 62 wild type): 23.3%
- wt % > 10 ([1]; Saquinavir FC>10, position 71 wild type): 17.4%
- wt % > 10 ([1]; Saquinavir FC>10, position 74 wild type): 28.7%
- wt % > 10 ([1]; Saquinavir FC>10, position 84 wild type): 24.9%
- wt % > 10 ([1]; Saquinavir FC>10, position 90 wild type): 19.4%
- mt % > 10 ([1]; Saquinavir FC>10): 31.2%
- % FC > 2.5 ([2]; SQV, V82A/F/S/T + mutation at position 10): 40%
- % FC > 2.5 ([2]; SQV, V82A/F/S/T + mutation at position 20): 80%
- % FC > 2.5 ([2]; SQV, V82A/F/S/T + mutation at position 20, listed as SQV): 80%
- % FC > 2.5 ([2]; SQV, V82A/F/S/T + mutation at position 24): 65%
- % FC > 2.5 ([2]; SQV, V82A/F/S/T + mutation at position 36): 73%
- % FC > 2.5 ([2]; SQV, V82A/F/S/T + mutation at position 36, listed as SQV): 73%
- % FC > 2.5 ([2]; SQV, V82A/F/S/T + mutation at position 54): 47%
- % FC > 2.5 ([2]; SQV, V82A/F/S/T + mutation at position 71): 52%
- % FC > 2.5 ([2]; SQV, listed as 82: all virus with V82A/F/S/T): 27%
- % with SQV FC > 2.5 [2, 5]: 27%
- % with SQV FC > 2.5 [2, 6]: 30%
- % with SQV FC > 2.5 [2, 7]: 39%
- % with SQV FC > 2.5 [2, 8]: 50%
- % with SQV FC > 2.5 [2, 9]: 60%
- % with SQV FC > 2.5 [2, 10]: 76%
- % with SQV FC > 2.5 [2, 11]: 60%

Structure (SMILES): CC(C)c1nc(CN(C)C(=O)N[C@H](C(=O)N[C@@H](Cc2ccccc2)C[C@H](O)[C@H](Cc2ccccc2)NC(=O)OCc2cncs2)C(C)C)cs1 [ritonavir]
- Percent of viruses with indicated primary mutation(s) with reduced susceptibility (fold change in IC50 > 2.5) [1]: 97.8%
- Percent of viruses with indicated primary mutation(s) with reduced susceptibility (fold change in IC50 > 10) [1]: 89.3%
- Percent of viruses with indicated primary mutation(s) which are drug sensitive (fold change in IC50 < 2.5) [3]: 3.0%

Structure (SMILES): Cc1c(O)cccc1C(=O)N[C@@H](CSc1ccccc1)[C@H](O)CN1C[C@H]2CCCC[C@H]2C[C@H]1C(=O)NC(C)(C)C [nelfinavir]
- oral bioavailability [4]: good oral bioavailability
- drug levels in tissues [4]: high levels of the drug in mesenteric lymph nodes and the spleen

Structure (SMILES): CC(C)CN(C[C@@H](O)[C@H](Cc1ccccc1)NC(=O)O[C@H]1CCOC1)S(=O)(=O)c1ccc(N)cc1 [amprenavir]
- wt % > 2.5 ([1]; Amprenavir FC>2.5, position 10 wild type): 34.8%
- wt % > 2.5 ([1]; Amprenavir FC>2.5, position 23 wild type): 58.5%
- wt % > 2.5 ([1]; Amprenavir FC>2.5, position 32 wild type): 57.7%
- wt % > 2.5 ([1]; Amprenavir FC>2.5, position 33 wild type): 56.5%
- wt % > 2.5 ([1]; Amprenavir FC>2.5, position 37 wild type): 55.6%
- wt % > 2.5 ([1]; Amprenavir FC>2.5, position 46 wild type): 52.2%
- wt % > 2.5 ([1]; Amprenavir FC>2.5, position 53 wild type): 57.0%
- wt % > 2.5 ([1]; Amprenavir FC>2.5, position 54 wild type): 51.2%
- wt % > 2.5 ([1]; Amprenavir FC>2.5, position 61 wild type): 61.8%
- wt % > 2.5 ([1]; Amprenavir FC>2.5, position 71 wild type): 46.5%
- wt % > 2.5 ([1]; Amprenavir FC>2.5, position 84 wild type): 55.8%
- wt % > 2.5 ([1]; Amprenavir FC>2.5, position 90 wild type): 49.6%
- mt % > 2.5 ([1]; Amprenavir FC>2.5): 60.0%
- wt % > 10 ([1]; Amprenavir FC>10, position 10 wild type): 0.0%
- wt % > 10 ([1]; Amprenavir FC>10, position 11 wild type): 9.5%
- wt % > 10 ([1]; Amprenavir FC>10, position 32 wild type): 8.9%
- wt % > 10 ([1]; Amprenavir FC>10, position 33 wild type): 6.5%
- wt % > 10 ([1]; Amprenavir FC>10, position 46 wild type): 4.4%
- wt % > 10 ([1]; Amprenavir FC>10, position 53 wild type): 8.9%
- wt % > 10 ([1]; Amprenavir FC>10, position 60 wild type): 8.8%
- wt % > 10 ([1]; Amprenavir FC>10, position 71 wild type): 4.7%
- wt % > 10 ([1]; Amprenavir FC>10, position 84 wild type): 6.4%
- wt % > 10 ([1]; Amprenavir FC>10, position 90 wild type): 5.9%
- mt % > 10 ([1]; Amprenavir FC>10): 10.4%
- Percent of viruses with indicated primary mutation(s) with reduced susceptibility (fold change in IC50 > 2.5) [1]: 60.0%
- Percent of viruses with indicated primary mutation(s) with reduced susceptibility (fold change in IC50 > 10) [1]: 10.4%
- Percent of viruses with indicated primary mutation(s) which are drug sensitive (fold change in IC50 < 2.5) [3]: 33.3%
- Percent of viruses with indicated primary mutation(s) which are drug sensitive (fold change in IC50 < 2.5) ([2]; {}): 53.3%

Structure (SMILES): CC(C)(C)NC(=O)[C@@H]1CN(Cc2cccnc2)CCN1C[C@@H](O)C[C@@H](Cc1ccccc1)C(=O)N[C@H]1c2ccccc2C[C@H]1O [indinavir]
- wt % > 2.5 ([1]; Indinavir FC>2.5, position 10 wild type): 80.4%
- wt % > 2.5 ([1]; Indinavir FC>2.5, position 13 wild type): 95.7%
- wt % > 2.5 ([1]; Indinavir FC>2.5, position 20 wild type): 89.6%
- wt % > 2.5 ([1]; Indinavir FC>2.5, position 37 wild type): 95.1%
- wt % > 2.5 ([1]; Indinavir FC>2.5, position 45 wild type): 93.8%
- wt % > 2.5 ([1]; Indinavir FC>2.5, position 46 wild type): 87.6%
- wt % > 2.5 ([1]; Indinavir FC>2.5, position 54 wild type): 80.5%
- wt % > 2.5 ([1]; Indinavir FC>2.5, position 64 wild type): 93.9%
- wt % > 2.5 ([1]; Indinavir FC>2.5, position 71 wild type): 81.4%
- wt % > 2.5 ([1]; Indinavir FC>2.5, position 72 wild type): 90.7%
- wt % > 2.5 ([1]; Indinavir FC>2.5, position 84 wild type): 91.0%
- wt % > 2.5 ([1]; Indinavir FC>2.5, position 93 wild type): 89.1%
- mt % > 2.5 ([1]; Indinavir FC>2.5): 92.2%
- wt % > 10 ([1]; Indinavir FC>10, position 10 wild type): 30.4%
- wt % > 10 ([1]; Indinavir FC>10, position 13 wild type): 62.2%
- wt % > 10 ([1]; Indinavir FC>10, position 20 wild type): 53.4%
- wt % > 10 ([1]; Indinavir FC>10, position 35 wild type): 53.6%
- wt % > 10 ([1]; Indinavir FC>10, position 36 wild type): 54.4%
- wt % > 10 ([1]; Indinavir FC>10, position 43 wild type): 57.6%
- wt % > 10 ([1]; Indinavir FC>10, position 48 wild type): 57.4%
- wt % > 10 ([1]; Indinavir FC>10, position 53 wild type): 57.8%
- wt % > 10 ([1]; Indinavir FC>10, position 54 wild type): 34.1%
- wt % > 10 ([1]; Indinavir FC>10, position 55 wild type): 58.0%
- wt % > 10 ([1]; Indinavir FC>10, position 71 wild type): 37.2%
- wt % > 10 ([1]; Indinavir FC>10, position 72 wild type): 56.5%
- wt % > 10 ([1]; Indinavir FC>10, position 73 wild type): 57.3%
- wt % > 10 ([1]; Indinavir FC>10, position 90 wild type): 45.9%
- mt % > 10 ([1]; Indinavir FC>10): 60.0%
- oral bioavailability [4]: enhanced
- % FC > 2.5 ([2]; IDV, V82A/F/S/T + mutation at position 10): 83%
- % FC > 2.5 ([2]; IDV, V82A/F/S/T + mutation at position 24): 100%
- % FC > 2.5 ([2]; IDV, V82A/F/S/T + mutation at position 24, listed as IDV): 100%
- % FC > 2.5 ([2]; IDV, V82A/F/S/T + mutation at position 46): 89%
- % FC > 2.5 ([2]; IDV, V82A/F/S/T + mutation at position 54): 95%
- % FC > 2.5 ([2]; IDV, V82A/F/S/T + mutation at position 63): 79%
- % FC > 2.5 ([2]; IDV, V82A/F/S/T + mutation at position 71): 100%
- % FC > 2.5 ([2]; IDV, V82A/F/S/T + mutation at position 71, listed as IDV): 100%
- % FC > 2.5 ([2]; IDV, listed as 82: all virus with V82A/F/S/T and no other primary mutations): 77%
- % with IDV FC > 2.5 [2, 5]: 77%
- % with IDV FC > 2.5 [2, 6]: 82%
- % with IDV FC > 2.5 [2, 7]: 88%
- % with IDV FC > 2.5 [2, 8]: 95%
- % with IDV FC > 2.5 [2, 9]: 96%
- % with IDV FC > 2.5 [2, 10]: 100%
- % with IDV FC > 2.5 [2, 11]: 100%
